Consider five molecules from patent US20230192795A1 (Hoffmann-La Roche, published 2023).

First the molecules themselves.
B1: PD1-IL7-VAR1 (E13A) (other)
light: DIVMTQSPDSLAVSLGERATINCKASESVDTSDNSFIHWYQQKPGQSPKLLIYRSSTLESGVPDRFSGSGSGTDFTLTISSLQAEDVAVYYCQQNYDVPWTFGQGTKVEIKRTVAAPSVFIFPPSDEQLKSGTASVVCLLNNFYPREAKVQWKVDNALQSGNSQESVTEQDSKDSTYSLSSTLTLSKADYEKHKVYACEVTHQGLSSPVTKSFNRGEC
heavy 1: EVQLLESGGGLVQPGGSLRLSCAASGFSFSSYTMSWVRQAPGKGLEWVATISGGGRDIYYPDSVKGRFTISRDNSKNTLYLQMNSLRAEDTAVYYCVLLTGRVYFALDSWGQGTLVTVSSASTKGPSVFPLAPSSKSTSGGTAALGCLVKDYFPEPVTVSWNSGALTSGVHTFPAVLQSSGLYSLSSVVTVPSSSLGTQTYICNVNHKPSNTKVDKKVEPKSCDKTHTCPPCPAPEAAGGPSVFLFPPKPKDTLMISRTPEVTCVVVDVSHEDPEVKFNWYVDGVEVHNAKTKPREEQYNSTYRVVSVLTVLHQDWLNGKEYKCKVSNKALGAPIEKTISKAKGQPREPQVCTLPPSRDELTKNQVSLSCAVKGFYPSDIAVEWESNGQPENNYKTTPPVLDSDGSFFLVSKLTVDKSRWQQGNVFSCSVMHEALHNHYTQKSLSLSPGK
heavy 2: EVQLLESGGGLVQPGGSLRLSCAASGFSFSSYTMSWVRQAPGKGLEWVATISGGGRDIYYPDSVKGRFTISRDNSKNTLYLQMNSLRAEDTAVYYCVLLTGRVYFALDSWGQGTLVTVSSASTKGPSVFPLAPSSKSTSGGTAALGCLVKDYFPEPVTVSWNSGALTSGVHTFPAVLQSSGLYSLSSVVTVPSSSLGTQTYICNVNHKPSNTKVDKKV[human IgG1 Fc with changes left out]GGGGSGGGGSGGGGSDCDIEGKDGKQYASVLMVSIDQLLDSMKEIGSNCLNNEFNFFKRHICDANKEGMFLFRAARKLRQFLKMNSTGDFDLHLLKVSEGTTILLNCTGQVKGRKPAALGEAQPTKSLEENKSLKEQKKLNDLCFLKRLLQEIKTCWNKILMGTKEH
notes: Format as m1
B2: PD1-IL7-VAR9 (Q22A) (other)
light: DIVMTQSPDSLAVSLGERATINCKASESVDTSDNSFIHWYQQKPGQSPKLLIYRSSTLESGVPDRFSGSGSGTDFTLTISSLQAEDVAVYYCQQNYDVPWTFGQGTKVEIKRTVAAPSVFIFPPSDEQLKSGTASVVCLLNNFYPREAKVQWKVDNALQSGNSQESVTEQDSKDSTYSLSSTLTLSKADYEKHKVYACEVTHQGLSSPVTKSFNRGEC
heavy 1: EVQLLESGGGLVQPGGSLRLSCAASGFSFSSYTMSWVRQAPGKGLEWVATISGGGRDIYYPDSVKGRFTISRDNSKNTLYLQMNSLRAEDTAVYYCVLLTGRVYFALDSWGQGTLVTVSSASTKGPSVFPLAPSSKSTSGGTAALGCLVKDYFPEPVTVSWNSGALTSGVHTFPAVLQSSGLYSLSSVVTVPSSSLGTQTYICNVNHKPSNTKVDKKVEPKSCDKTHTCPPCPAPEAAGGPSVFLFPPKPKDTLMISRTPEVTCVVVDVSHEDPEVKFNWYVDGVEVHNAKTKPREEQYNSTYRVVSVLTVLHQDWLNGKEYKCKVSNKALGAPIEKTISKAKGQPREPQVCTLPPSRDELTKNQVSLSCAVKGFYPSDIAVEWESNGQPENNYKTTPPVLDSDGSFFLVSKLTVDKSRWQQGNVFSCSVMHEALHNHYTQKSLSLSPGK
heavy 2: EVQLLESGGGLVQPGGSLRLSCAASGFSFSSYTMSWVRQAPGKGLEWVATISGGGRDIYYPDSVKGRFTISRDNSKNTLYLQMNSLRAEDTAVYYCVLLTGRVYFALDSWGQGTLVTVSSASTKGPSVFPLAPSSKSTSGGTAALGCLVKDYFPEPVTVSWNSGALTSGVHTFPAVLQSSGLYSLSSVVTVPSSSLGTQTYICNVNHKPSNTKVDKKV[human IgG1 Fc with changes left out]GGGGSGGGGSGGGGSDCDIEGKDGKQYESVLMVSIDALLDSMKEIGSNCLNNEFNFFKRHICDANKEGMFLFRAARKLRQFLKMNSTGDFDLHLLKVSEGTTILLNCTGQVKGRKPAALGEAQPTKSLEENKSLKEQKKLNDLCFLKRLLQEIKTCWNKILMGTKEH
notes: Format as m1; IL-7 with Q22A
B3: PD1-IL7-VAR8 (D21K) (other)
light: DIVMTQSPDSLAVSLGERATINCKASESVDTSDNSFIHWYQQKPGQSPKLLIYRSSTLESGVPDRFSGSGSGTDFTLTISSLQAEDVAVYYCQQNYDVPWTFGQGTKVEIKRTVAAPSVFIFPPSDEQLKSGTASVVCLLNNFYPREAKVQWKVDNALQSGNSQESVTEQDSKDSTYSLSSTLTLSKADYEKHKVYACEVTHQGLSSPVTKSFNRGEC
heavy 1: EVQLLESGGGLVQPGGSLRLSCAASGFSFSSYTMSWVRQAPGKGLEWVATISGGGRDIYYPDSVKGRFTISRDNSKNTLYLQMNSLRAEDTAVYYCVLLTGRVYFALDSWGQGTLVTVSSASTKGPSVFPLAPSSKSTSGGTAALGCLVKDYFPEPVTVSWNSGALTSGVHTFPAVLQSSGLYSLSSVVTVPSSSLGTQTYICNVNHKPSNTKVDKKVEPKSCDKTHTCPPCPAPEAAGGPSVFLFPPKPKDTLMISRTPEVTCVVVDVSHEDPEVKFNWYVDGVEVHNAKTKPREEQYNSTYRVVSVLTVLHQDWLNGKEYKCKVSNKALGAPIEKTISKAKGQPREPQVCTLPPSRDELTKNQVSLSCAVKGFYPSDIAVEWESNGQPENNYKTTPPVLDSDGSFFLVSKLTVDKSRWQQGNVFSCSVMHEALHNHYTQKSLSLSPGK
heavy 2: EVQLLESGGGLVQPGGSLRLSCAASGFSFSSYTMSWVRQAPGKGLEWVATISGGGRDIYYPDSVKGRFTISRDNSKNTLYLQMNSLRAEDTAVYYCVLLTGRVYFALDSWGQGTLVTVSSASTKGPSVFPLAPSSKSTSGGTAALGCLVKDYFPEPVTVSWNSGALTSGVHTFPAVLQSSGLYSLSSVVTVPSSSLGTQTYICNVNHKPSNTKVDKKV[human IgG1 Fc with changes left out]GGGGSGGGGSGGGGSDCDIEGKDGKQYESVLMVSIKQLLDSMKEIGSNCLNNEFNFFKRHICDANKEGMFLFRAARKLRQFLKMNSTGDFDLHLLKVSEGTTILLNCTGQVKGRKPAALGEAQPTKSLEENKSLKEQKKLNDLCFLKRLLQEIKTCWNKILMGTKEH
notes: Format as m1; IL-7 with D21K
B4: PD1-IL7-VAR7 (D21A) (other)
light: DIVMTQSPDSLAVSLGERATINCKASESVDTSDNSFIHWYQQKPGQSPKLLIYRSSTLESGVPDRFSGSGSGTDFTLTISSLQAEDVAVYYCQQNYDVPWTFGQGTKVEIKRTVAAPSVFIFPPSDEQLKSGTASVVCLLNNFYPREAKVQWKVDNALQSGNSQESVTEQDSKDSTYSLSSTLTLSKADYEKHKVYACEVTHQGLSSPVTKSFNRGEC
heavy 1: EVQLLESGGGLVQPGGSLRLSCAASGFSFSSYTMSWVRQAPGKGLEWVATISGGGRDIYYPDSVKGRFTISRDNSKNTLYLQMNSLRAEDTAVYYCVLLTGRVYFALDSWGQGTLVTVSSASTKGPSVFPLAPSSKSTSGGTAALGCLVKDYFPEPVTVSWNSGALTSGVHTFPAVLQSSGLYSLSSVVTVPSSSLGTQTYICNVNHKPSNTKVDKKVEPKSCDKTHTCPPCPAPEAAGGPSVFLFPPKPKDTLMISRTPEVTCVVVDVSHEDPEVKFNWYVDGVEVHNAKTKPREEQYNSTYRVVSVLTVLHQDWLNGKEYKCKVSNKALGAPIEKTISKAKGQPREPQVCTLPPSRDELTKNQVSLSCAVKGFYPSDIAVEWESNGQPENNYKTTPPVLDSDGSFFLVSKLTVDKSRWQQGNVFSCSVMHEALHNHYTQKSLSLSPGK
heavy 2: EVQLLESGGGLVQPGGSLRLSCAASGFSFSSYTMSWVRQAPGKGLEWVATISGGGRDIYYPDSVKGRFTISRDNSKNTLYLQMNSLRAEDTAVYYCVLLTGRVYFALDSWGQGTLVTVSSASTKGPSVFPLAPSSKSTSGGTAALGCLVKDYFPEPVTVSWNSGALTSGVHTFPAVLQSSGLYSLSSVVTVPSSSLGTQTYICNVNHKPSNTKVDKKV[human IgG1 Fc with changes left out]GGGGSGGGGSGGGGSDCDIEGKDGKQYESVLMVSIAQLLDSMKEIGSNCLNNEFNFFKRHICDANKEGMFLFRAARKLRQFLKMNSTGDFDLHLLKVSEGTTILLNCTGQVKGRKPAALGEAQPTKSLEENKSLKEQKKLNDLCFLKRLLQEIKTCWNKILMGTKEH
notes: Format as m1; IL-7 with D21A
B5: PD1-IL7-VAR2 (E13K) (other)
light: DIVMTQSPDSLAVSLGERATINCKASESVDTSDNSFIHWYQQKPGQSPKLLIYRSSTLESGVPDRFSGSGSGTDFTLTISSLQAEDVAVYYCQQNYDVPWTFGQGTKVEIKRTVAAPSVFIFPPSDEQLKSGTASVVCLLNNFYPREAKVQWKVDNALQSGNSQESVTEQDSKDSTYSLSSTLTLSKADYEKHKVYACEVTHQGLSSPVTKSFNRGEC
heavy 1: EVQLLESGGGLVQPGGSLRLSCAASGFSFSSYTMSWVRQAPGKGLEWVATISGGGRDIYYPDSVKGRFTISRDNSKNTLYLQMNSLRAEDTAVYYCVLLTGRVYFALDSWGQGTLVTVSSASTKGPSVFPLAPSSKSTSGGTAALGCLVKDYFPEPVTVSWNSGALTSGVHTFPAVLQSSGLYSLSSVVTVPSSSLGTQTYICNVNHKPSNTKVDKKVEPKSCDKTHTCPPCPAPEAAGGPSVFLFPPKPKDTLMISRTPEVTCVVVDVSHEDPEVKFNWYVDGVEVHNAKTKPREEQYNSTYRVVSVLTVLHQDWLNGKEYKCKVSNKALGAPIEKTISKAKGQPREPQVCTLPPSRDELTKNQVSLSCAVKGFYPSDIAVEWESNGQPENNYKTTPPVLDSDGSFFLVSKLTVDKSRWQQGNVFSCSVMHEALHNHYTQKSLSLSPGK
heavy 2: EVQLLESGGGLVQPGGSLRLSCAASGFSFSSYTMSWVRQAPGKGLEWVATISGGGRDIYYPDSVKGRFTISRDNSKNTLYLQMNSLRAEDTAVYYCVLLTGRVYFALDSWGQGTLVTVSSASTKGPSVFPLAPSSKSTSGGTAALGCLVKDYFPEPVTVSWNSGALTSGVHTFPAVLQSSGLYSLSSVVTVPSSSLGTQTYICNVNHKPSNTKVDKKV[human IgG1 Fc with changes left out]GGGGSGGGGSGGGGSDCDIEGKDGKQYKSVLMVSIDQLLDSMKEIGSNCLNNEFNFFKRHICDANKEGMFLFRAARKLRQFLKMNSTGDFDLHLLKVSEGTTILLNCTGQVKGRKPAALGEAQPTKSLEENKSLKEQKKLNDLCFLKRLLQEIKTCWNKILMGTKEH
notes: Format as m1; IL-7 with E13K

This test deals with T1, Human IL7Ra-IL2Rγ-Fc heterodimer (human, biotin on the avi tag).
T1 construct: Extracellular domains of IL-7Ralpha and IL-2Rgamma fused to Fc knob and Fc hole; also called hu IL7Ra-IL2Rγ-Fc avi biotin; human IL7Ra-IL2Rg-Fc biotin
Briefly: SPR, captured from supernatant, 800 nM receptor-Fc single injection. How it is done: Surface Plasmon Resonacne (SPR) experiments were performed on a Biacore T200 with HBS-EP+ as running buffer (0.01 M HEPES pH 7.4, 0.15 M NaCl, 0.005% Surfactant P20 (BR-1006-69, GE Healthcare)). Fc specific antibodies (Roche internal) were directly immobilized by amine coupling on a CM5 chip (GE Healthcare). The PDI-IL7 constructs were captured from supernatants for 120 s at 100 nM. […] Only the extracellular domains were fused to Fc domains, produced in HEK Expi Cells and purified by two-step column chromatography including affinity purification via Protein A followed by size-exclusion chromatography. A single injection of 800 nM hu IL 7Ra-IL2Rγ-Fc heterodimer was passed over the ligand at 30 µ1/min for 240 sec to record the association phase. The dissociation phase was monitored for 360 s and triggered by switching from the sample solution to HBS-EP+. The chip surface was regenerated after every cycle using one injection of 10 mM glycine pH 2 for 60 sec. Bulk refractive index differences were corrected for by subtracting the response obtained on the reference flow cell 1. The response units after the capture step and at the end of the association phase were recorded and a ratio of binding to capture was calculated. The single binding curves were fitted in the dissociation phase to obtain a koff for ease of comparison (Biacore Evaluation software, GE Healthcare).
The ratio of binding to capture was calculated and the dissociation phase was fitted to a single curve to support the characterization of the off-rate.
(SPR reads the build-up and loss of mass on a sensor chip optically.)
For the molecule B1, the off-rate constant (koff) (commonly a measure of how fast the partners let go of each other) worked out at 0.000555 s⁻¹.
With B2, the koff was 0.000598 s⁻¹.
Then B3, with 0.000634 s⁻¹; and B4, with 0.000623 s⁻¹; and B5, with 0.000864 s⁻¹.
